The values that follow come from PubChem BioAssay AID1346428 (National Center for Advancing Translational Sciences (NCATS), 2018).

In all, about 48,000 compounds went through this assay and about 1,200 (2.5%) were called active. Not shown: some 2% with an inconclusive outcome.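 How the source made its calls: active means activation of at least 60% and not above a set upper limit (about 1 call in 100 departs from these limits); inconclusive means activation of 40% to 60%, or above that upper limit; inactive means activation under 40%.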 This is one part of the list.

The assay has as its target Probable G-protein coupled receptor 32 (Homo sapiens) (UniProt O75388). The assay can be described thus: qHTS for Agonists of Human Resolvin D1 Receptor DRV1. Further: 0% is about no effect. The note with it: CHO-K1 GPR32 beta-arrestin PathHunter luminescence, 90 min; at 76.9 µM; stronger effect = higher value; zero percent set by DMSO-only wells. In a few lines: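 Engineered CHO-K1 line co-expressing GPR32-ProLink and EA-beta-arrestin. Compound treatment lasted 90 min at 37 °C. Luminescence was recorded after 1 h with substrate at ambient temperature, relative to DMSO basal wells.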
UniProt O75388, sequence (O75388 whole entry, looked up): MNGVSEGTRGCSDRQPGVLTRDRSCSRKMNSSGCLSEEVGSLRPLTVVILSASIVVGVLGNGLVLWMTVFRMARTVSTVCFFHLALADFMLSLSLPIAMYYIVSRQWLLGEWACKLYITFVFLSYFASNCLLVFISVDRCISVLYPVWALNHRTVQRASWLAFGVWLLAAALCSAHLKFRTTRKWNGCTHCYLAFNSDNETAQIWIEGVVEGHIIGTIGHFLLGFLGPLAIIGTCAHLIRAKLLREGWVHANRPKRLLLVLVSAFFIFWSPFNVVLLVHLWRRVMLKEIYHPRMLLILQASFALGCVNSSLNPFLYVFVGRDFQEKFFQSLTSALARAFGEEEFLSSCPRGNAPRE
In general terms: Quantitative high-throughput screening tests each substance at several concentrations.
Take `CCc1ccc(NCc2cc3cc4c(cc3n(CC(=O)Nc3ccc(OC)cc3)c2=O)OCO4)cc1`: the activation is inactive: -67.6%.
The figure for `Cn1c(SCC(=O)N2CCOCC2)ncc(C(=O)Nc2ccc(F)cc2)c1=O` is inactive: -4.79%.
With `CCc1ccc(C2c3c(-c4cc(C)ccc4O)n[nH]c3C(=O)N2CCO)cc1` (stereo not drawn) the figure was inactive: -1.07%; with `CCOC(=O)c1c(S(=O)(=O)NCC(=O)Nc2cccc(SC)c2)c(C)n(C)c1C`, inactive: -11.9%.
The figure for `CCCSc1nc2sc3c(c2c(=O)n1-c1ccc(C)cc1)CCCC3` is inactive: 0.357%; for `Cn1c(=O)c2c(ncn2CCO)n(C)c1=O` it is inactive: 1.03%; for `CC1=C(c2ccc(C(C)C)cc2)S(=O)(=O)NC1=NCc1ccc(OC(C)C)cc1` it is inactive: -12.7%.
`COc1ccc(NC(=O)CCCS(=O)(=O)c2nc(-c3ccccc3OC)cc(C(F)(F)F)n2)c(OC)c1`: the activation was inactive: 27.1%.
`CC1CCN(CCCNC(=O)CN2C(=O)CSc3ccc(S(=O)(=O)N4CCCCC4)cc32)CC1`: the activation is inactive: -20%.
The figure for `COc1ccc(C(C)NC(=O)CN(c2cc(OC)ccc2OC)S(=O)(=O)c2ccccc2)cc1` (stereo not drawn) is inactive: -17.2%; for `Cc1ccc(CNC(=O)C2CCCN(c3nc4ccccc4n4cccc34)C2)cc1` (stereo not drawn) it is inactive: -40.7%.
With `COCCn1c(CNC(=O)c2ccccc2C)nc2cccnc21` the figure was inactive: -8.84%; with `Cc1ccc(C)c(CN2CCC(CNC(=O)C(CC(C)C)N3Cc4ccccc4C3=O)CC2)c1` (stereo not drawn), inactive: -21.6%.
With `COc1ccc(NC(=O)Nc2cccc(-c3noc(C)n3)c2)cc1` the figure was inactive: -6.01%; with `O=C(c1cccs1)N1CCCc2cc(NS(=O)(=O)c3ccc(Br)cc3)ccc21`, inactive: -17.7%.
Regarding `CCc1cccc(C)c1NC(=O)C1CCN(S(=O)(=O)c2cc(Br)cc3c2N(C(C)=O)CC3)CC1`, the activation is inactive: -0.323%.
With `Brc1cccc(-c2nn(-c3ccccc3)c3c2cnc2cc4c(cc23)OCO4)c1` the figure was inactive: 5.6%; with `O=C(NCc1ccccc1Cl)c1ccc2c(c1)ncn2-c1cccc(F)c1`, inactive: -13.1%.
With `COc1ccc(-n2c(CC3C(=O)Nc4ccc(C)cc43)nc3ccccc3c2=O)cc1` (stereo not drawn) the figure was inactive: -4.76%; with `COc1cccc(-n2ccnc2SCC(=O)Nc2cccc3ccccc23)c1`, inactive: -8.92%.
On to `COc1ccc(-c2oc3ncn4nc(-c5ccccc5OC)nc4c3c2-c2ccc(OC)cc2)cc1`, for which the activation is inactive: -12.9%.
With `COc1cccc(CNC(=O)Nc2cn(CC(C)C)c(=O)c3ccccc23)c1`, the activation was inactive: -62.8%.
With `COc1ccc(OCc2ccc(-c3nc(C#N)c(NCc4ccc(F)cc4)o3)o2)cc1` the figure was inactive: -15.2%; with `Cc1nc(N2CCCC2)ncc1C(=O)Nc1ccc(OC(F)(F)F)cc1`, inactive: 39.4%.
The figure for `Cc1nnc2c3ccccc3nc(Nc3ccc(F)cc3Cl)n12` is inactive: 4.45%; for `CCOc1ccc(-n2c(-c3ccc(Br)cc3)cc3c2CC(C)(C)CC3=O)cc1` it is inactive: -15.9%; for `CCOC(=O)c1cc(-c2ccc(F)cc2)n(CCC(=O)Nc2nc3cc(C)c(C)cc3s2)c1C` it is inactive: -15.9%.
The figure for `Cc1ccc2c(CC(=O)Nc3nnc(C(C)C)s3)coc2c1C` is inactive: 24.9%; for `COc1cc(OC)cc(-n2c(=O)c3sccc3n(Cc3cc(=O)n4c(C)cccc4n3)c2=O)c1` it is inactive: -3.71%.
In the case of `Cc1cccc(N(C)S(=O)(=O)c2nnc(NC(=O)C(C)(C)C)s2)c1`, the activation is inactive: -10.6%.
In the case of `Cc1ccc(Cl)cc1NC(=O)Cn1nnc2sc3c(c2c1=O)CCC(C(C)(C)C)C3` (stereo not drawn), the activation is inactive: -9.63%.
On to `COc1ccc(CCNc2ncnc3c2cnn3-c2ccc(F)cc2)cc1`, for which the activation was active: 66.4%.
The figure for `Brc1ccc(CN2CCc3nc(Nc4ccccc4)ncc3C2)s1` is inactive: -23.1%; for `O=C(c1ccc2c(c1)N(Cc1ccccc1F)C(=O)c1ccccc1S2=O)N1CCC(Cc2ccccc2)CC1` (stereo not drawn) it is inactive: -20.8%; for `COc1ccc(N(Cc2cc3cc(OC)ccc3[nH]c2=O)C(=O)c2cccc(Cl)c2)cc1` it is inactive: -10%.
The figure for `COc1ccc(OC)c(CNC(=O)c2cc3c(=O)oc4ccc(C)cc4c3s2)c1` is inactive: 3.95%; for `CCOC(=O)CSc1nnc(-c2ccc(OC)cc2)o1` it is inactive: -6.44%.
With `CCN(CC)C(=O)c1sc2c(c1C)c(=O)n(-c1ccccc1)c(=O)n2CC(=O)N(CC)c1cccc(C)c1` the figure was inactive: -15.3%; with `COc1cc(C(=O)Nc2cc(C)c(O)c(-c3nc4cc(Cl)ccc4o3)c2)cc(OC)c1OC`, inactive: -4.01%.
On to `CCCOc1ccc(C(=O)N(Cc2ccc(Cl)cc2)Cc2ccco2)cc1`, for which the activation was inactive: -34.7%.
In the case of `Cc1cn2c(=O)cc(COC(=O)COc3ccc(C)c(C)c3)nc2s1`, the activation is inactive: -8.39%.
The figure for `CCCCN(C)C(=O)CN1C(=O)c2cccnc2Oc2ccc(Cl)cc21` is inactive: -11.7%.
The figure for `CN(C(=O)CSc1nncn2c1cc1occc12)c1ccccc1` is inactive: -26%; for `COc1cc(NC(=O)CCS(=O)(=O)c2ccc(Br)cc2)cc(OC)c1` it is inactive: -7%; for `Cc1ccc(CNC(=O)c2ccc3c(c2)NC(=O)C(CS(=O)(=O)Cc2cccc(C)c2)N3)cc1` (stereo not drawn) it is inactive: -33.9%.
With `CC(CCc1ccc2c(c1)OCO2)NN` (stereo not drawn) the figure was inactive: 44.1%; with `COc1ccc(Cn2ccn(CC(=O)Nc3cc(C)ccc3C)c(=O)c2=O)cc1`, inactive: -13.1%.
On to `O=C(NCc1cccs1)c1ccc2c(c1)sc1nc(-c3ccccc3)cn12`, for which the activation was inactive: -5.66%.
With `CC(C)c1ccc(-c2noc(SCC(=O)N3CCN(c4ccccc4F)CC3)n2)cc1` the figure was inactive: 6.32%; with `Cn1c(CNC(=O)CSc2nc(-c3ccccc3F)nc3cc(=O)[nH]n23)nc2ccccc21`, inactive: -45.1%.
As for `Cc1ccc(NC(=O)Cn2c(=O)ccc3cc(S(=O)(=O)N4CCCC4)ccc32)cc1C`, the activation is inactive: 12%.
The figure for `Cc1c(C(=O)N2CCC(C(=O)Nc3ccc(F)c(Cl)c3)CC2)sc2nc[nH]c(=O)c12` is inactive: -3.97%.
With `COc1cc(CN(C(=O)c2ccccc2)c2ccccn2)cc(OC)c1OC` the figure was inactive: 11.4%.
With `CCCOc1ccc(C2C(=O)N(C3CCCCCC3)CC(=O)N2C(C)C)cc1OC` (stereo not drawn) the figure was inactive: -11.1%; with `Cc1cc2nn(-c3ccc(F)cc3)nc2cc1NC(=O)c1ccc(C(C)(C)C)cc1`, inactive: -5.68%.
Take `COc1ccc(-c2cn3cccnc3n2)cc1NC(=O)c1ccccc1C(F)(F)F`: the activation was inactive: -0.393%.
With `COc1ccc2c(c1)c(=O)c(C(=O)c1ccc(F)cc1)cn2CC(=O)Nc1ccc2c(c1)OCCO2` the figure was inactive: -9.65%.
The figure for `CCCn1c(CNC(=O)c2ccc(F)cc2)nc2ccccc21` is inactive: -5.87%.
With `O=C(CCCN1C(=O)C(c2ccccc2)Oc2cccnc21)Nc1ccccc1C(F)(F)F` (stereo not drawn) the figure was inactive: -6.7%; with `Cc1ccc2oc(-c3ccc(C)c(NC(=O)c4ccc(N5CCC(C)CC5)c([N+](=O)[O-])c4)c3)nc2c1`, inactive: -0.0961%; with `Cc1cccc(NC(=O)c2ccc3snnc3c2)c1C`, inactive: -23.5%.
Regarding `O=c1c2cc3c(cc2n(Cc2ccc(F)cc2)c(=O)n1Cc1nc(-c2ccccc2)no1)OCO3`, the activation was inactive: -4.86%.
The figure for `CC(C)CN(CCCNC(=O)CN1N=C(c2ccc(Cl)cc2)CCC1=O)CC(C)C` is inactive: -15.7%.
The figure for `COc1ccc2c(c1)CCc1c(C(=O)Nc3c(C)nn(Cc4ccccc4C)c3C)noc1-2` is inactive: 9.65%; for `Clc1ccc2c(c1)NC(c1ccncc1)=NC(c1cccs1)=N2` it is inactive: -26.7%; for `COC(=O)c1c(SC)nc2ccccc2c1OCc1ccc(Cl)cc1` it is inactive: -10.2%.
The figure for `CCOc1ccccc1NC(=O)C(CC(C)C)NS(=O)(=O)c1ccc2c(c1)oc(=O)n2C` (stereo not drawn) is inactive: 5.85%; for `COc1cc(CNC(=O)c2ccc3nc(CCc4ccccc4)oc3c2)cc(OC)c1OC` it is inactive: -28.6%; for `CCN1CCN(C(=O)c2cnn(-c3cccc(Cl)c3)c2C2CCN(C(=O)OC(C)(C)C)CC2)CC1` it is inactive: -7.11%.
`CNS(=O)(=O)c1cn(CC(=O)N2CCN(c3cccc(C)c3C)CC2)cc1S(=O)(=O)NC`: the activation was inactive: -5.54%.
The figure for `Cc1ccc(S(=O)(=O)N(Cc2nc(-c3cccc(C)c3)no2)C2CCCCC2)cc1` is inactive: -22.6%; for `O=c1cc(-c2ccccc2)nc(SCc2nc(-c3ccc(Cl)cc3)no2)[nH]1` it is inactive: -3.66%.
The figure for `O=C(COCc1cc(-c2ccc3c(c2)OCO3)on1)N1CCN(c2cccc(Cl)c2)CC1` is inactive: -10.3%; for `Cc1ccsc1C(=CCCN1CCC[C@@H](C(=O)O)C1)c1sccc1C` it is inactive: -2.94%.
On to `COc1ccccc1CCNC(=O)C1CCN(c2nnc(-n3cccc3CNc3ccc(C)cc3)s2)CC1`, for which the activation was inactive: -33.6%.
With `COc1ccc(N2CCN(c3csc4ccc(Cl)cc4c3=O)CC2)cc1` the figure was inactive: -38.7%.
As for `COc1ccc(Cl)cc1NC(=O)c1cn(C2CCCCC2)c(=O)c2c1c1ccccc1n2C`, the activation is inactive: 10.8%.
The figure for `CCOc1ccc(Nc2nc3cc(Cl)c(Cl)cc3nc2-n2nc(C)cc2C)cc1` is inactive: -0.122%; for `Cc1c(C(=O)N(Cc2ccc(N(C)C)cc2)CC2CCCO2)oc2ccc(Cl)cc12` (stereo not drawn) it is inactive: -22.5%; for `NS(=O)(=O)c1ccc(NC(=O)CN2C(=O)COc3ccc(Cl)cc32)cc1` it is active: 92.8%.
For the compound `Cc1ccc(C)c(S(=O)(=O)c2nnn3c2nc(NC(C)C)c2sccc23)c1`, the activation was inactive: -9.93%.
With `O=C(O)c1ccc2nc(-c3cc4cccc(O)c4oc3=O)[nH]c2c1`, the activation was inactive: -14.5%.
With `COc1ccc(CNC(=O)c2cc(-c3ccc(C)cc3)nc3n[nH]c(-c4ccc(Br)cc4)c23)cc1` the figure was inactive: -8.82%.
